Assay results from the RNAGym collection of RNA variant scans (doi:10.7554/elife.90254).
Read counts are not given, so values of variants with three or more changes are uncertain.

B1: LINE1-mini (parent)
chain: GGCAGAGCUCAACACAGCGUGGCAAAGUGGCUGUGGCUAGACUGCC

Variants of: B1
Assay: self-cleavage, relative activity (ratio to wild type); higher = more cleavage; in vitro, sequencing; the parent is a self-cleaving ribozyme

Variant	self-cleavage
G7U C13U G22U C31U C42G	0.03
G7U A12G A41C	0.01
G7U G21A C37U	0.1
G7U A39U G44U	0.21
G7U G22A C31U	0.05
G7U C10U C23A	0.03
G7U A12G A24U C42G	0.01
G7U C31G U38G C46U	0.01
G7C U32C G40C	0.22
G7C U20G A39U	0.04
G7U G17U G33A G36A	0.03
G7U C13A G21A A41U	0.4
G7U C37U G44A C46A	0.24
G7C U9A G22C A26C	0.08
G7U C8G C23A C31G A41U	0.04
G7U C15A G17C	0.09
G7U A12U G19C U20G C42A	0.02
G7C U38C G40A A41G	0.29
G7U A24C A25C G27U	0.08
G7U C8A C45A C46U	0.47
G7U C31U U34G C45A	0.01

Variant	self-cleavage
G7U G27A G40A	0.12
G7U A11G C13G A24C U28G G40C C45A	0.01
G7C U9C G19U G30U G33U	0.02
G7U A11U C23U G29A G35U G40C	0.01
G7U C10G A14C C46U	0.01
G7U A25G G27A C31U U38A	0.12
G7U A16U U34C G36A C42G	0.05
G7U G19A G40A	0.61
G7C U20C U38C C42A	0.03
G7U C8G G35A	0.48
G7U C8A G17A G21U G36U G40U	0.06
G7U C10U G21U G35C	0.03
G7U C15U C18U G22U	0.08
G7U C8U G27A C37G	0.05
G7U C8G A14U A16G G33C A41U	0.12
G7U C10U A12U A16G G19A U20A	0.02
G7C U28C G36C	0.07
G7U C31U C37A	0.01
G7U G17A G30A U34A C46G	0.04
G7U C15U U20G	0.07
G7U A11C C13A G17U A39U	0.01

Variant	self-cleavage
G7U C10G C18U G29A	0.02
G7C U9G G21A C31A A39C C42U C45U	0.02
G7U A14C A25G G27C	0.06
G7U C10U G21U G27C G29C G40A	0.01
G7U C10A A16C	0.02
G7U C8G A16U C18U G40U	0.04
G7U G21C U32G U34A	0.03
G7U C10G A39G	0.02
G7C U34G G36C C37U	0.12
G7U C10A G33U U34A	0.03
G7U G29A G33U U43A	0.04
G7U G29U G35C C46A	0.04
G7U C10U C18A G33U	0.03
G7U A12G C13G A24G	0.05
G7U G21U G36U C37G A41G C45U	0.01
G7C U9A G19A	0.09
G7U C18U G30A	0.08
G7U C8A G17C A25G C46A	0.11
G7C U9C A16U U28A A39G G44C C46U	0.03
G7U G22A G27A U43G	0.03
G7U C13U A25G	0.12

Variant	self-cleavage
G7U C10G G17A G22C G30C C46A	0.02
G7U G21U C46G	0.03
G7U C31A G35A G44U	0.06
G7U C8G G27U U38C U43A	0.04
G7C U9A G19U G33U	0.06
G7U G22C G35U G36U	0.11
G7U A26G G27A U28G	0
G7C U9A G27C	0.11
G7C U9G C15A A16C G22U U38C C46U	0.01
G7U A11G C13A U38C	0.03
G7U G29U G35U	0.05
G7U C15A G17U G19A U28A	0.04
G7U C18A A41U	0.18
G7U C13G G33A G40U	0.21
G7U G21U U32G	0.19
G7U A14U C31U G35A U38G	0.13
G7U G17A G21U U28C	0.03
G7U C10A C15A G19C G27U G30U	0.01
G7U C18G G22C	0.22
G7U C10A A16U U32G	0.01
